Data from PubChem BioAssay AID588855 (National Center for Advancing Translational Sciences (NCATS), 2011).
In all, about 410,000 compounds went through this assay and about 5,000 (1.2%) were called active. The shares of active, inactive and inconclusive entries below differ from those in the screen. Calls follow the shape of the dose curve; as a rule, active = well fitted inhibition curve with a large enough effect; inconclusive = small, poorly fitted or top-dose-only effect; inactive = no such curve, though single readings can be large or run the other way. Potencies beside an inconclusive call are fits to weak or partial responses and may not hold up.

experiment: qHTS for Inhibitors of TGF-b; settings: HepG2 CAGA-GFP TGF-b/SMAD3 reporter, GFP fluorescence, 18 h, TGF-beta stimulated, 500 pg/mL final; series mostly up to 46.1 µM; also: nearly all actives have a fitted effect of over 65% in size
In short: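 HEPG2 CAGA-GFP cells (1000/well, DMEM with 1% FBS) were pre-incubated 2 h at 37 degrees C, given compound by pin tool, then stimulated with TGF-beta at 500 pg/mL final for 18 h before per-cell GFP fluorescence imaging.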
Potency is read from the fitted curve at half-maximal effect; tags tell the direction and shape of the fitted curve.

Question: Which Potency does the source give for `O=[N+]([O-])c1ccc(OCCCCN2CCCCC2)cc1` here?
Answer: inactive

Question: For `Cc1cccc(NC(=S)NCCSc2ccc(Cl)cc2)c1`, which Potency is on record?
Answer: inconclusive: 15.8 µM [inhibitor, single point]

Question: With `CN(CC(=O)Nc1ccccc1Cl)C(=O)c1ccc(N2CCCCCC2)c([N+](=O)[O-])c1` as the compound, how does the Potency read?
Answer: inconclusive: 35.5 µM [inhibitor, single point]

Question: With `O=C1C=C(c2ccc(OC(F)(F)F)cc2)C[C@@H](c2ccc(Cl)cc2)C1` as the compound, how does the Potency read?
Answer: inconclusive: 0.158 µM [inhibitor, full curve, poor fit]

Question: With `Cc1ccc(S(=O)(=O)N2CCC(=O)N(C(COC(=O)Nc3ccccc3)Cc3ccccc3)CC2)cc1` (configuration not stated) as the compound, how does the Potency read?
Answer: inconclusive: 3.55 µM [inhibitor, partial curve, poor fit]

Question: Which Potency does the source give for `Nc1nc(NCC2CCCO2)nc(Nc2cccc(Cl)c2)c1[N+](=O)[O-]` (configuration not stated) here?
Answer: inconclusive: 35.5 µM [inhibitor, partial curve, poor fit]

Question: For `CCN(CC)C(=O)Cn1cc([N+](=O)[O-])cc1[N+](=O)[O-]`, which Potency is on record?
Answer: inactive

Question: Which Potency does the source give for `Cc1ccc2sc(N(CCCN(C)C)C(=O)c3ccc(Br)s3)nc2c1C` here?
Answer: inconclusive: 35.5 µM [inhibitor, single point]

Question: For `Cc1ccc(Nc2nc(N)nc(CSc3nc4ccccc4s3)n2)cc1`, which Potency is on record?
Answer: active: 12.6 µM

Question: With `CSc1ccc(S(=O)(=O)Nc2ccc(S(=O)(=O)Nc3ccc(C)cc3)cc2)cc1` as the compound, how does the Potency read?
Answer: inconclusive: 35.5 µM [inhibitor, partial curve, poor fit]

Question: For `O=C(NCCOc1ccccc1)C1Nc2ccc(C(F)(F)F)cc2C2c3ccccc3CC12` (configuration not stated), which Potency is on record?
Answer: inconclusive: 35.5 µM [inhibitor, partial curve, poor fit]

Question: With `COC(=O)Cn1cnc(C(=O)Nc2ccc(C)c(C)c2)n1` as the compound, how does the Potency read?
Answer: inconclusive: 3.98 µM [inhibitor, full curve, poor fit]

Question: With `CC1(C(=O)Nc2ccc3c(c2)OCO3)Cc2c(-c3cccc(C(N)=O)c3)ccnc2O1` (configuration not stated) as the compound, how does the Potency read?
Answer: inactive

Question: With `COc1ccc(C(=O)COC(=O)CN2C(=O)NC3(CC(C)CC(C)(C)C3)C2=O)c(OC)c1` (configuration not stated) as the compound, how does the Potency read?
Answer: inconclusive: 35.5 µM [inhibitor, single point]

Question: Which Potency does the source give for `CCOC(=O)c1ccc2c(c1)nc(COc1ccc3ccccc3c1)n2CC` here?
Answer: inconclusive: 35.5 µM [inhibitor, partial curve, poor fit]

Question: For `C=CCn1c(-c2cc(Cl)ccc2OC)n[nH]c1=S`, which Potency is on record?
Answer: inactive

Question: With `Cc1ccc(S(=O)(=O)C(CNC(=O)C(=O)NCCc2ccc(Cl)cc2)c2ccco2)cc1` (configuration not stated) as the compound, how does the Potency read?
Answer: inactive

Question: Which Potency does the source give for `CC1(OC(=O)CCc2ccccc2)C(=O)C=C2C=C(c3ccc(C#N)cc3)N(c3ccccc3)C=C2C1=O` (configuration not stated) here?
Answer: inactive

Question: With `Cc1ccc(N(CCC#N)C(=O)CCl)cc1C` as the compound, how does the Potency read?
Answer: inconclusive: 15.8 µM [inhibitor, single point]

Question: Which Potency does the source give for `COc1ccc(-c2nn(-c3ccccc3F)cc2CNCCn2nc(C)cc2C)cc1` here?
Answer: inconclusive: 35.5 µM [inhibitor, single point]

Question: With `COc1cccc(CN2C(=O)NC3(CCCCCC3)C2=O)c1` as the compound, how does the Potency read?
Answer: inconclusive: 5.01 µM [inhibitor, single point]

Question: With `Cc1ccc(S(=O)(=O)Nc2ccccc2N(C)S(=O)(=O)c2ccc(C)cc2)cc1` as the compound, how does the Potency read?
Answer: inconclusive: 3.55 µM [inhibitor, full curve]

Question: For `CC(=O)N(c1ccccc1Cl)S(=O)(=O)c1ccc(Cl)cc1`, which Potency is on record?
Answer: inactive

Question: With `OCCN(CC(O)Cn1ccc2ccccc21)CC(O)Cn1ccc2ccccc21` (configuration not stated) as the compound, how does the Potency read?
Answer: inconclusive: 11.2 µM [inhibitor, partial curve, poor fit]

Question: For `CCCC1(C(=O)OC)NC(c2cccc(F)c2)C2C(=O)N(CC)C(=O)C21` (configuration not stated), which Potency is on record?
Answer: inconclusive: 2.82 µM [inhibitor, partial curve]

Question: For `CC(=O)c1ccc(N2CCN(C(=O)C3CCN(S(=O)(=O)c4ccc5c(c4)CC(C)N5C(=O)C4CC4)CC3)CC2)cc1` (configuration not stated), which Potency is on record?
Answer: inconclusive: 35.5 µM [inhibitor, single point]

Question: For `COc1ccc(CCNc2ncnc3c2cnn3-c2ccc(C)c(Cl)c2)cc1`, which Potency is on record?
Answer: inconclusive: 0.112 µM [inhibitor, full curve, poor fit]

Question: With `C[C@@H](NC(=O)Cn1cnc2c(OCc3ccccc3)ncnc21)c1cccc2ccccc12` as the compound, how does the Potency read?
Answer: inconclusive: 15.8 µM [inhibitor, partial curve, poor fit]

Question: For `O=C(CCC1N=C2c3ccccc3N=C(SCc3ccc(Cl)cc3)N2C1=O)NCc1cccs1` (configuration not stated), which Potency is on record?
Answer: inactive

Question: Which Potency does the source give for `COc1ccc(OCC(O)Cn2c(=N)n(CCN3CCCCC3)c3ccccc32)cc1` (configuration not stated) here?
Answer: inconclusive: 35.5 µM [inhibitor, single point]

Question: Which Potency does the source give for `O=c1c2ccccc2cnn1CCOc1cccc(Br)c1` here?
Answer: inactive

Question: Which Potency does the source give for `Nc1nc(CN2CCN(C(c3ccccc3)c3ccccc3)CC2)nc(Nc2ccccc2)n1` here?
Answer: inconclusive: 14.1 µM [inhibitor, single point]

Question: Which Potency does the source give for `O=[N+]([O-])c1c(Nc2ccccn2)cc(Cl)c2nonc12` here?
Answer: active: 3.16 µM

Question: Which Potency does the source give for `Cc1ccc(-n2ncc(C(=O)Nc3cc(Cl)ccc3Cl)c2C2CCNCC2)cc1` here?
Answer: inconclusive: 35.5 µM [inhibitor, single point]

Question: With `Cc1cccc(N2CCN(C(=O)c3noc4c3CCCCC4)CC2)c1C` as the compound, how does the Potency read?
Answer: inconclusive: 15.8 µM [inhibitor, partial curve, poor fit]

Question: For `N#CC(c1cccc(Cl)c1)c1ccc2c(C(F)(F)F)cc(C(F)(F)F)nc2n1` (configuration not stated), which Potency is on record?
Answer: active: 1.26 µM

Question: Which Potency does the source give for `COc1ccc(N2CCN(C(=O)CNS(=O)(=O)c3ccc(Br)s3)CC2)cc1` here?
Answer: inconclusive: 0.562 µM [inhibitor, full curve, poor fit]

Question: With `COCCCN=C1NN=C(c2cc(C)n(Cc3ccco3)c2C)CS1` as the compound, how does the Potency read?
Answer: inconclusive: 7.94 µM [inhibitor, partial curve, poor fit]

Question: Which Potency does the source give for `N#Cc1nc(/C=C/c2ccc(F)cc2)oc1NCc1ccc(F)cc1` here?
Answer: inconclusive: 35.5 µM [inhibitor, single point]

Question: Which Potency does the source give for `COc1ccc(N=C2SCC(=O)N2C)cc1` here?
Answer: inactive

Question: With `c1cc2c(c(NCc3ccncc3)c1)CCCC2` as the compound, how does the Potency read?
Answer: inactive

Question: Which Potency does the source give for `C#CCOCCOCCOCCNc1nc(N2CCN(C(=O)CCCCCCCCCCNC(=O)[C@H](CCCCN)n3cc(C)nn3)CC2)nc(N2CCN(C(=O)CCCCCCCCCCNC(=O)[C@@H]([C@H](C)O)n3cc(C)nn3)CC2)n1` here?
Answer: inconclusive: 35.5 µM [inhibitor, single point]

Question: Which Potency does the source give for `Cc1ccc(-n2ncc3c(=O)n(Cc4cccnc4)cnc32)cc1` here?
Answer: inconclusive: 5.62 µM [inhibitor, single point]

Question: With `NC(c1ccccc1)c1csc(NC(=O)Nc2ccc(OC(F)(F)F)cc2)n1` (configuration not stated) as the compound, how does the Potency read?
Answer: inconclusive: 35.5 µM [inhibitor, single point]

Question: For `CC1(C)N=C(N)N=C(N)N1c1cc(Cl)ccc1Cl`, which Potency is on record?
Answer: inactive

Question: Which Potency does the source give for `c1ccc(N2CCN(c3nc(-c4ccccn4)nc4ccccc34)CC2)cc1` here?
Answer: inconclusive: 3.16 µM [inhibitor, single point]

Question: With `Cn1c(=O)c2c(ncn2Cc2ccc(Cl)cc2)n(C)c1=O` as the compound, how does the Potency read?
Answer: inactive

Question: Which Potency does the source give for `CCCCn1c(=N)n(CCOc2ccc(C)cc2)c2ccccc21` here?
Answer: inconclusive: 35.5 µM [inhibitor, single point]

Question: Which Potency does the source give for `Cc1c(C(=O)N/N=C/c2ccc(N(C)C)cc2)[nH]c2ccc(Cl)cc12` here?
Answer: active: 4.47 µM

Question: With `COc1ccc([N+](=O)[O-])cc1NC(=S)Nc1ccccc1` as the compound, how does the Potency read?
Answer: inconclusive: 0.794 µM [inhibitor, full curve, poor fit]

Question: With `Cc1c(C(=O)NN2CCN(C)CC2)cccc1[N+](=O)[O-]` as the compound, how does the Potency read?
Answer: inactive

Question: With `O=c1cc(N2CCCCC2)c(-c2ccccc2)nn1Cc1c(Cl)cccc1Cl` as the compound, how does the Potency read?
Answer: active: 10 µM

Question: Which Potency does the source give for `COc1ccc(/C=C/C(=O)Nc2cc(C)nn2-c2nc3ccccc3[nH]2)cc1` here?
Answer: inactive

Question: For `COc1cc(/C=C/C(=O)N2c3ccccc3Sc3ccc(C(F)(F)F)cc32)cc(OC)c1OC`, which Potency is on record?
Answer: inconclusive: 35.5 µM [inhibitor, single point]

Question: With `O=C(c1ccc2c(c1)N(Cc1cccc(Cl)c1)C(=O)c1ccccc1S2=O)N1CCN(c2cccc(C(F)(F)F)c2)CC1` (configuration not stated) as the compound, how does the Potency read?
Answer: inconclusive: 0.316 µM [inhibitor, full curve]

Question: For `CCC(CC)C(=O)N(C)c1c(C)nc2c(OCCOc3ccc(F)cc3)cccn12`, which Potency is on record?
Answer: inconclusive: 11.2 µM [inhibitor, partial curve]

Question: With `Cc1ccc(NS(=O)(=O)c2ccc(NC(=O)c3cccs3)cc2)cc1` as the compound, how does the Potency read?
Answer: inactive

Question: With `O=C(CSc1ccc(-c2ccccn2)nn1)NC1CCCC1` as the compound, how does the Potency read?
Answer: inconclusive: 35.5 µM [inhibitor, single point]

Question: For `Cn1c(=Nc2ccccc2)sc2ccccc21`, which Potency is on record?
Answer: inactive

Question: With `CC(=O)Nc1ccc2c(CSc3nnc(-c4cccnc4)n3-c3ccc(C)cc3C)cc(=O)oc2c1` as the compound, how does the Potency read?
Answer: inconclusive: 12.6 µM [inhibitor, partial curve]

Question: Which Potency does the source give for `COc1ccc(OC)c(Nc2cc(C)nc3ccc(C)cc23)c1` here?
Answer: inconclusive: 35.5 µM [inhibitor, single point]

Question: For `O=C(NC(=S)Nc1ccccc1Cl)c1cncc(Br)c1`, which Potency is on record?
Answer: inconclusive: 0.708 µM [inhibitor, full curve, poor fit]

Question: Which Potency does the source give for `O=C(CCN1C(=O)C2C3C=CC(C3)C2C1=O)N1CCN(c2ccccc2Cl)CC1` (configuration not stated) here?
Answer: inactive

Question: Which Potency does the source give for `O=C(NCc1ccc(Cl)cc1)C1CCN(S(=O)(=O)c2ccccc2)CC1` here?
Answer: inconclusive: 15.8 µM [inhibitor, single point]

Question: With `Cc1ccc(NC(=O)C2CCN(S(=O)(=O)c3ccc4c(c3)C(C)(C)C(=O)N4C)CC2)c(C)c1` as the compound, how does the Potency read?
Answer: inactive

Question: For `COc1ccc2c(c1)N(C)/C(=C/c1cccc[n+]1C)S2`, which Potency is on record?
Answer: inactive

Question: With `FC(F)(F)C(F)(F)C(F)(F)c1nnc2ccc(N3CCOCC3)nn12` as the compound, how does the Potency read?
Answer: inconclusive: 17.8 µM [inhibitor, partial curve, poor fit]
